From PubChem BioAssay AID1656 (Sanford-Burnham Center for Chemical Genomics, 2009)
The whole screen tested about 240,000 compounds, of which about 950 (0.4%) were called active. The shares of active, inactive and inconclusive entries below differ from those in the screen.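 The calls were made as follows: active = lipid droplet intensity inhibited by at least 50%, with more than 500 cells counted; inconclusive = wells with under 300 cells, treated as cytotoxic; inactive = the rest.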

Experiment: inhibitors of hepatocyte lipid droplet formation, primary screen, imaging, high-throughput imaging, BODIPY stain (AID 1656)
Details: AML12 mouse hepatocytes, oleate lipid droplets, at 6.5 µM, active compounds read high
Procedure, shortened: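 material = mouse AML12 hepatocyte cell line, fixed after treatment | also added = 100 µM oleic acid challenge | doses = compound at 6.5 µM only | schedule = overnight exposure | technique = Image-based BODIPY and DAPI two-channel analysis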

Row | Compound | inhibition
1 | CC(C)(C)C1CCC(=NNC(=O)c2ccc(Br)o2)CC1 (stereo not given) | inconclusive: -310%
2 | Cc1cccc(Nc2nc(N)c([N+](=O)[O-])c(N3CCCC(C)C3)n2)c1 (stereo not given) | active: 62%
3 | CCCc1cc2c(=O)c(-c3ccc4c(c3)OCCO4)c(C)oc2cc1OS(C)(=O)=O | inconclusive: -33.6%
4 | CC(C)(COC(=O)Nc1ccccc1)COC(=O)Nc1ccccc1 | inactive: 2%
5 | CCOC(=O)C1C2C=CC3(CN(Cc4cccs4)C(=O)C13)O2 (stereo not given) | inconclusive: -72.7%
6 | CN(CC(=O)NCCc1ccc(F)cc1)Cc1cccs1 | inconclusive: 152%
7 | COc1cc2c(cc1OC)C1(Nc3c-2c(Cc2ccccc2)nn3-c2ccccc2)C(=O)Nc2ccccc21 (stereo not given) | inactive: 7.7%
8 | O=C(Nc1ccc2c3c(cccc13)CC2)c1ccc(Br)o1 | inactive: -13.4%
9 | CCOC(=O)c1ccccc1NC(=O)Cn1c(-c2nonc2N)nc2ccccc21 | inconclusive: -127%
10 | Cc1ccccc1OCC(=O)NCCCNC(=O)c1ccccn1 | active: 93.1%
11 | O=C(NCC1CCCO1)c1cc(-c2ccccc2)nc2ccc(Br)cc12 (stereo not given) | inactive: -27.4%
12 | Cc1cc(C)cc(NC(=S)NCc2ccc3[nH]c4c(c3c2)CCCC4)c1 | inactive: -1.3%
13 | CCc1c(C)sc(NC(=O)/C=C/c2ccc3c(c2)OCO3)c1C(=O)OC | inconclusive: 121%
14 | CCn1c2ccccc2c2cc(Nc3cc(C)nc4ncnn34)ccc21 | inconclusive: -216%
15 | COc1ccc(NC(=O)C(=O)c2cn(CC(=O)N3CCCC3)c3ccccc23)cc1 | inconclusive: -289%
16 | CCCCOc1ccc(Br)cc1/C(C)=N/NC1=NCCN1 | inconclusive: -303%
17 | COc1ccc(CCNC(=O)C2CC3Cn4c(nc5cc6ccccc6cc54)C3N2C)cc1 (stereo not given) | active: 51.3%
18 | CCc1cc(SC#N)cc(C)c1NC(=O)CCl | active: 68.4%
19 | O=C(CCl)N=c1sccn1Cc1ccc(Cl)cc1Cl | inconclusive: -95%
20 | Cc1ccc(S(=O)(=O)NNC(=O)c2sc(=S)n(C)c2C)cc1 | inactive: 14.2%
21 | O=C1NN(c2ccccc2)C(=O)/C1=C\c1ccc(-c2cc([N+](=O)[O-])ccc2O)o1 | inconclusive: 139%
22 | Cc1nc([N+](=O)[O-])c(Br)n1CC(=O)c1ccc(Cl)cc1 | inactive: 1.9%
23 | Cc1ccc(N(C)S(=O)(=O)c2ccc(-c3cnc(C4CC4)o3)cc2)cc1 | inconclusive: -197%

Row | Compound | inhibition
24 | COc1cc(C2C(C#N)=C(C)NC3=C2C(=O)c2ccccc23)cc(OC)c1OC (stereo not given) | inconclusive: 86.2%
25 | CC1CCCCN1Cc1ccc(N)cc1 (stereo not given) | inconclusive: -28.2%
26 | Cc1ccc(NC(=O)Cc2ccc3c(c2)CCCC3)cc1C | active: 53%
27 | Cc1ccc(CCC(=O)Nc2ncc(Cc3cccc(Cl)c3Cl)s2)o1 | inconclusive: -370%
28 | O=C(N/N=C/C(Br)=C/c1ccccc1)c1n[nH]c2c1CCC2 | inconclusive: -180%
29 | O=S1(=O)N=C(Oc2cccc3ccccc23)c2ccccc21 | active: 65.8%
30 | COc1ccc(OC)c(/C=C/c2ccc3cccc(O)c3n2)c1 | inconclusive: 142%
31 | CCN(Cc1ccncc1)C(=O)C1CCC(=O)N(Cc2ccc(Cl)cc2)C1 (stereo not given) | inactive: 6.3%
32 | Clc1ccc(SCCOCCN2CCCCCC2)cc1 | inactive: -1.1%
33 | N#CC1=C(N)OC2=C(CCc3ccccc32)C1c1ccccc1Cl (stereo not given) | inconclusive: -116%
34 | Nc1cc2c3c(cccc3c1)C(=O)N(CCN1CCCC1)C2=O | inconclusive: -69.1%
35 | Cc1ccc(O)c(NC(=O)C2=CC(c3cccs3)=NS(=O)(=O)N2C)c1 | inconclusive: 118%
36 | CSc1nc(N(C)NC(=O)c2ccccc2)c2ccccc2n1 | inconclusive: -172%
37 | C=C(C)CN(CC)C(=O)COc1ccc(S(=O)(=O)Nc2ccc(OC)cc2)cc1 | inconclusive: 122%
38 | CC(C)COC(=O)c1ccc(N2C(=O)c3ccccc3C2=O)cc1 | inactive: -2.2%
39 | Fc1ccc(C2c3[nH]c4ccccc4c3CCN2Cc2cccn2-c2ncccn2)cc1 (stereo not given) | inconclusive: 126%
40 | COc1ccc2c(c1)c(CC(=O)Nc1ccccc1OC)c(C)n2C(=O)c1ccc(Cl)cc1 | active: 67.2%
41 | COc1ccccc1N=C(C)C1=C(O)CC(c2ccccc2)CC1=O (stereo not given) | inconclusive: -266%
42 | CCN(CC(=O)Nc1ccc2c(c1)OCCO2)C(=O)/C=C/c1ccc(F)cc1 | inactive: -22.9%
43 | O=C(NC1=C(Nc2ccc(F)cc2)C(=O)c2ccccc2C1=O)c1ccc(Cl)cc1 | inconclusive: 20.2%
44 | COC(=O)Cn1c(=NC(=O)c2sc3ccccc3c2Cl)sc2cc(S(N)(=O)=O)ccc21 | inconclusive: -10.1%
45 | COc1ccc(OC)c(S(=O)(=O)Nc2cc(C(=O)O)ccc2N2CC3CC(C2)c2cccc(=O)n2C3)c1 (stereo not given) | inactive: -15.8%
46 | CCOC(=O)C1=NN(c2ccccc2)C2=NC(C)=C(C(=O)OC)C(c3ccc(C)cc3)N12 (stereo not given) | inconclusive: -18.8%

Row | Compound | inhibition
47 | O=C(/C=C/c1cccs1)Nc1ccc(Br)cn1 | inconclusive: -166%
48 | COc1cccc(C(=O)NCC2(c3ccccc3)CCCC2)c1OC | inactive: -16%
49 | COc1cc(C2=NOC(C(=O)NCc3ccc(F)cc3)C2)cc(OC)c1OC (stereo not given) | inconclusive: -100%
50 | O=C(NC1CCCCC1)C(c1cccnc1)N(C(=O)CCl)c1ccc(F)cc1 (stereo not given) | inconclusive: -113%
51 | NC(=O)c1c(NC(=O)c2ccc([N+](=O)[O-])o2)sc2c1CCCC2 | inactive: -60.6%
52 | O=[N+]([O-])c1ccccc1-c1cc(-c2cc(Cl)ccc2O)n[nH]1 | inactive: -6.3%
53 | CCOC(=O)C1CCN(C(=O)C2(NC(=O)Nc3ccccc3C)CCCCC2)CC1 | active: 81.3%
54 | COc1cc(/C=N/NC(=O)c2ccncc2)ccc1OCC(=O)Nc1cccc([N+](=O)[O-])c1 | inactive: 24.1%
55 | Cc1cc(C)nc(NS(=O)(=O)c2ccc(NS(=O)(=O)c3ccccc3)cc2)n1 | inactive: 2.2%
56 | COc1ccc(Cl)cc1NC(=O)CN(C)CC(=O)Nc1ccccc1N1CCOCC1 | inconclusive: -162%
57 | C=CCOc1ccc2nc(NC(=O)OC)[nH]c2c1 | inconclusive: -152%
58 | O=C1c2cccc3cccc(c23)N1Cc1ccc(F)cc1 | inconclusive: -24.2%
59 | CCNC(=S)N1CCc2cc(OC)c(OC)cc2C1COc1ccccc1OC (stereo not given) | active: 62.1%
60 | O=C(CCl)Nc1cccc(S(=O)(=O)NC2=NCCC2)c1 | inconclusive: 194%
61 | CC(=O)OC(C)C[N+](C)(C)C (stereo not given) | inconclusive: 84.9%
62 | CCc1ccc(CCC(=O)Nc2ncc(Cc3ccccc3Cl)s2)o1 | inconclusive: -49.2%
63 | COc1cc2ncnc(NCc3ccccc3)c2cc1OC | inconclusive: 70.9%
64 | COC(=O)c1[nH]c2c(c1C)C(=O)CC(c1ccccc1)C2 (stereo not given) | inconclusive: -217%
65 | C=CCN1C(=O)C(CC(=O)Nc2ccc(OCCC)cc2)N(CCCN2CCN(Cc3ccccc3)CC2)C1=S (stereo not given) | inactive: -20.2%
66 | Cc1cccc(Nc2nc(-c3ccncc3)cs2)c1 | inconclusive: -69.3%
67 | COc1ccccc1NC(=O)CC(c1ccc(OC(C)C)cc1)c1ccccc1OC (stereo not given) | inconclusive: 125%
68 | Clc1ccc(OCCCCSc2ncccn2)cc1 | inconclusive: 121%
69 | CCCCc1c(C)nc2ccc(Br)cc2c1SC(N)N | inactive: 0.5%

Row | Compound | inhibition
70 | CCOc1ccccc1N(C(=O)c1snc(C(N)=O)c1N)C(CC)C(=O)NC1CCCC1 (stereo not given) | inconclusive: -308%
71 | C=C(C)C1CC=C(C)/C(=N/Nc2ccccc2[N+](=O)[O-])C1 (stereo not given) | active: 78.2%
72 | O=C(Nn1c(O)c(C=C2N=c3ccccc3=N2)sc1=S)c1ccccc1 | inactive: -6.5%
73 | Cc1c(NC(=O)COC(=O)c2cc(-c3ccc(-c4ccccc4)cc3)nc3ccccc23)c(=O)n(-c2ccccc2)n1C | inactive: -0.1%
74 | CCN(CC)c1ccc(/C=N/N=C(N)N)c(O)c1 | inconclusive: -147%
75 | O=C1c2cccc3cc([N+](=O)[O-])cc(c23)C(=O)N1c1ccccc1O | inactive: -4.4%
76 | COc1ccc(OCc2cc(C(=O)N(C)Cc3nnc(C)o3)no2)c(Cl)c1 | inactive: 23.4%
77 | COc1ccc(-c2csc(NNC3=NCCCCC3)n2)cc1 | active: 115%
78 | CCOc1ccc(C(=O)c2cc([N+](=O)[O-])ccc2N2CCOCC2)cc1 | inconclusive: -346%
79 | COC(=O)c1cnc(SCc2ccc([N+](=O)[O-])cc2)n1C | inconclusive: 119%
80 | COc1ccccc1N1CCN(C(=O)c2nn(C)c3c2CS(=O)(=O)c2ccccc2-3)CC1 | inactive: -4%
81 | C/C(=N/NC(=O)CNC(=O)c1cccnc1)c1ccco1 | inconclusive: 143%
82 | O=C(Nc1ccc(Cl)cc1)ON=C1CCCC1 | inconclusive: -16.2%
83 | COc1ccc(N2CCN(CC(=O)Nc3ccc(C)c(C)c3)CC2)cc1 | inactive: 0.2%
84 | CCOCCOC(=O)c1[nH]c2c(c1C)C(=O)CC(c1cccs1)C2 (stereo not given) | inconclusive: -275%
85 | COc1cccc(/C=C/C(=C2/C(=O)N(c3ccccc3)N=C2C)c2ccc(C)cc2)c1OC | active: 74.4%
86 | COc1ccc(/C=N/NC(=O)c2[nH]c3ccc(Br)cc3c2-c2ccccc2)cc1 | inconclusive: -253%
87 | CCN(CC)C(=S)SCC(=O)Nc1nc(=O)c2ccccc2s1 | inconclusive: -5.8%
88 | Nc1ccc(C(=O)n2c3ccccc3c3ccccc32)cc1 | inconclusive: -184%
89 | CCc1cc(=O)oc2cc3occ(-c4ccc(OC)c(F)c4)c3cc12 | inconclusive: -93.2%
90 | CCOc1cc(N2CCOCC2)c(OCC)cc1NC(=O)COC(=O)c1cccc2ccccc12 | active: 54.6%
